Hit rate of the full screen: of about 310,000 compounds, about 2,200 (0.71%) showed an effect of 50% or more. Effects have a minus sign here. Some of the results follow.
What follows are compounds tested against human ether-à-go-go-related gene (hERG) potassium channel (human, UniProt Q12809) (assay: primary screen, population patch clamp on CHO cells stably expressing hERG).
human ether-à-go-go-related gene (hERG) potassium channel, sequence (Q12809 whole entry, looked up): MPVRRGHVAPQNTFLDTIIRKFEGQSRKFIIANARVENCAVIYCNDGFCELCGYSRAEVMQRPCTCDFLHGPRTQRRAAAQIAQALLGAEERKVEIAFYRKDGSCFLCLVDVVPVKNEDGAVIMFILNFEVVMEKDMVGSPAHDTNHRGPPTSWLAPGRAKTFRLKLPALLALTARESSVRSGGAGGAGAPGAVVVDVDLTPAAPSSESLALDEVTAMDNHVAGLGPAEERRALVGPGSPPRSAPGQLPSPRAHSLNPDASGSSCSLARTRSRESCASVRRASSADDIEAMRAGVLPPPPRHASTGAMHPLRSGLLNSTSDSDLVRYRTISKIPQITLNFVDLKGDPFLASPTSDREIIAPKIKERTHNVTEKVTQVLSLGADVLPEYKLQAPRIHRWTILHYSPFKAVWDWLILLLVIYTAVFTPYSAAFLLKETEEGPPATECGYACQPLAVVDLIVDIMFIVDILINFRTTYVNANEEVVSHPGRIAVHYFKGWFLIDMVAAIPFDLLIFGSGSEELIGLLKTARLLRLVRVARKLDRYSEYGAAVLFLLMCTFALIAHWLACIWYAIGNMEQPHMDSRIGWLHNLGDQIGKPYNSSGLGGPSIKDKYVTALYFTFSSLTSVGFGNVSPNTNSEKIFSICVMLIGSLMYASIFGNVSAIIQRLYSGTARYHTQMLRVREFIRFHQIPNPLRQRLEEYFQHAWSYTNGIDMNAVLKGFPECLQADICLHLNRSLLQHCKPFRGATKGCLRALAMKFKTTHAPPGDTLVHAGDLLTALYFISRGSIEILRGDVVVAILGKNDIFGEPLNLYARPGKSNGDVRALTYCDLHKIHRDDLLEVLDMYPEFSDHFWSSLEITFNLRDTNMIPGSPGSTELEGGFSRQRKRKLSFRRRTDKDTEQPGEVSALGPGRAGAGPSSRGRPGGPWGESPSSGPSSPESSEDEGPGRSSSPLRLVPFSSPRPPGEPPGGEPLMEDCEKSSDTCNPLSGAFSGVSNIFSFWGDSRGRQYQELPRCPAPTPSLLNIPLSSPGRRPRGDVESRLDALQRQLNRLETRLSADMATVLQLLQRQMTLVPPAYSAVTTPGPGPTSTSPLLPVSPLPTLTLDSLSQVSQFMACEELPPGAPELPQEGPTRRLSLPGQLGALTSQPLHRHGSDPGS

Structure (SMILES)	hERG current change (%, negative = inhibition) at 1uM
COc1ccc(CC(=O)NNC(=O)COc2ccc3ccccc3c2)cc1	10.6%
CC(=O)Nc1cc2c(cc1Br)OCCO2	11.3%
Cc1onc(-c2ccccc2)c1-c1csc(COc2ccccc2)n1	15.1%
C=CCNC(=O)CSc1nnc(C(CC)N(C)C)n1C1CCCCC1 (centres unmarked)	8.12%
CCCC(=O)Nc1c(-c2ccccc2)c(=O)c(C)nn1-c1ccc(Cl)cc1	9.07%
O=C(Nc1ccc(N2CCOCC2)cc1)c1ccc([N+](=O)[O-])cc1	20.7%
N#CCC(=O)N/N=C/c1ccc(Sc2nc3ccccc3s2)o1	9.58%
COc1ccc(Cc2nnc(SCc3nc4ccccc4c(=O)[nH]3)n2C)cc1	10.7%
COC(=O)C1=C(c2cccc(OCc3ccccc3)c2)C[C@@H]2CC[C@H]1N2C(=O)NNCc1ccccc1	12.4%
CCOC(=O)Cc1nnc(NC(=O)CCc2ccccc2)s1	12.7%
COc1ccc(-c2nc(N)ncc2Oc2ccccc2Br)c(O)c1	-1.62%
NS(=O)(=O)c1ccc(CCNC(=O)COC(=O)C2CCN(c3ccc(C(F)(F)F)cn3)CC2)cc1	-2.66%
Cn1c(=O)c2c(nc(NCCOc3ccc(C(C)(C)C)cc3)n2C)n(C)c1=O	0.529%
O=C(COc1ccc(Cl)cc1)Nc1ncccn1	-5.21%
CNC(=O)C(=O)NCC1OCCN1S(=O)(=O)c1ccc(OC)c(OC)c1 (centres unmarked)	12.9%
COc1nnc(-c2ccc(N3CCCCC3)c(N)c2)c2ccccc12	5.64%
CC(=O)c1c(O)cc(C(C)C)n(-c2ccccc2)c1=O	4.81%
COc1ccc2c(c1O)-c1ccccc1CCN(C)C2.Cl	5.61%
CC1CCCCC1NC(=O)C1CCN(S(=O)(=O)c2ccc3c(c2)CCC(=O)N3)CC1 (centres unmarked)	10.7%
COc1ccc(-c2cn(Cc3ccc(C(N)=O)cc3)c(CCN)n2)cc1	-17.7%
Cc1nc(N/N=C/c2cccc(F)c2)cc(N2CCOCC2)n1	-8.91%
Cn1c(-c2ccccc2)cnc1SCC(N)=O	18.8%
Cc1csc(Nc2ccccc2C(F)(F)F)n1	13.1%

Structure (SMILES)	hERG current change (%, negative = inhibition) at 1uM
Cn1nnnc1SCC(=O)N1c2ccccc2Sc2ccc(Cl)cc21	-3.03%
COCCNC(=O)COC(=O)c1cccnc1SC	12.8%
Cc1cc(C)n(C(=O)CCC(=O)NCc2ccccc2)n1	7.58%
CC(=O)c1sc(NC(=O)C2=NN(c3ccccc3)C(=O)CC2)nc1C	10.3%
CCCN(CC(=O)Nc1ccccc1OC)C(=O)c1cnc(Cl)c(Cl)c1	13.7%
CCOC(=O)CSC1=C(C#N)C(c2ccc(Cl)cc2)CC(=O)N1 (centres unmarked)	2.14%
CCC(C)(C)NC(=O)C(c1ccc(O)cc1)N(CCOC)C(=O)CCC(=O)Nc1nccs1 (centres unmarked)	15.2%
COCCN1C(=O)c2cc(C(=O)Nc3cccc(F)c3)ccc2C1Nc1cccc(F)c1 (centres unmarked)	9.68%
Cc1ccc(OCCOC(=O)Nc2ccccc2)cc1	8.88%
C=C(C)C(C)(C#CCN1CCCC1)OC(C)=O (centres unmarked)	-3.09%
CCNc1ccc(C(=O)OCC(=O)N(Cc2ccccc2)C(C)(C)C)cc1[N+](=O)[O-]	7.38%
CN1CCN(CCC(=O)Nc2cccc(Br)c2)CC1	7.14%
Cc1nc(NC(=O)C2CC2)sc1C(=O)Nc1cccc(Cl)c1	16.5%
Cc1cccc(C)c1NC(=S)N(CCN1CCCCCC1)Cc1ccco1	0.0867%
CC1=C(C(N)=O)C(c2cccs2)NC(=S)N1 (centres unmarked)	16.1%
CC1CCC/C=C/C(=O)c2c(O)cc(O)cc2CC(=O)O1 (centres unmarked)	6.8%
O=C(NCC1CCCO1)C(=O)N/N=C/c1ccc(O)c(Cl)c1 (centres unmarked)	10.5%
COc1ccccc1C(=O)Nc1nc(N)n(-c2ccccc2)n1	17.5%
Cc1cccc(-n2ccc(=O)c(C(=O)Nc3ccc(S(=O)(=O)Nc4nccs4)cc3)n2)c1	12.2%
Cc1cc(-n2cnnn2)ccc1C(C)C	-3.31%
COc1ccc2cc(CN(CC3CCCO3)C(=O)Nc3ccccc3)c(=O)[nH]c2c1 (centres unmarked)	7.36%
O=C(CCCOc1ccccc1)N1CCc2ccccc2C1	9.63%
Cc1ccc2c(CC(=O)OC(C)C(=O)Nc3ncc(Cl)cc3Cl)coc2c1 (centres unmarked)	11.6%

Structure (SMILES)	hERG current change (%, negative = inhibition) at 1uM
COc1ccc(C(C)=O)cc1CC(=O)Nc1ccccc1-c1ccccc1	16.8%
O=C(CN1CCCCCC1)Nc1cccc(NC(=O)CN2CCCCCC2)c1	7.91%
O=C1C(=Cc2cccn2-c2ccc(O)cc2)C(=O)c2ccccc21	6.18%
COc1ccc(NC(=O)C2CCCN(S(=O)(=O)c3c(C)[nH]c(=O)[nH]c3=O)C2)cc1OC (centres unmarked)	19%
c1ccc(-c2nc(-n3ccnc3)nc(-n3ccnc3)n2)cc1	-32.4%
Cc1cc(C)n(CC(=O)NNC(=O)c2ccc(NC(=O)CC#N)cc2)n1	8.18%
Cc1cc(C)nc(N(C#N)Cc2cccc([N+](=O)[O-])c2)n1	1.77%
Cc1occc1C(=O)N=Nc1c(O)n(C)c2ccccc12	15.6%
Cl.N=c1n(Cc2ccccc2Cl)c2ccccc2n1CC(O)c1ccco1 (centres unmarked)	-11.3%
O=c1c2cccnc2[nH]c(=S)n1CCCN1CCN(c2ccccc2F)CC1	5.53%
COc1ccc(C2c3[nH]c4ccccc4c3CCN2Cc2ccoc2)c(F)c1 (centres unmarked)	-2.79%
COc1ccc(CN(C)CC(=O)Nc2ccc(Cl)cc2C(F)(F)F)c(OC)c1.O=C(O)C(=O)O	14.6%
CCOc1ccccc1C1N(c2ccc(OC)cc2)C(=O)C2CCCN21 (centres unmarked)	11.4%
CCOc1cc(N2CCOCC2)c(OCC)cc1NC(=O)COC(=O)CCc1c[nH]c2ccccc12	4.41%
COc1cccc(/C=N/NC(=O)C(=O)Nc2ccccc2OC(F)(F)C(F)F)c1	10.6%
CN(Cc1ccc(Cl)cc1Cl)C(=O)c1cccc(S(=O)(=O)N2CCN(c3ccccc3)CC2)c1	11.2%
COc1ccc(NC2CCCN(C(=O)CCc3cn[nH]c3)C2)cc1 (centres unmarked)	-4.06%
CC(=O)c1ccc(S(=O)(=O)NC(=O)NC2CCCCC2)cc1	7.96%
CCOc1ccc(OCC)c(NC(=O)CN2CCN(CC)CC2)c1.Cl	-6.91%
CCN(CC)S(=O)(=O)c1cccc(NC(=O)CSc2nc3ccccc3[nH]2)c1	-3.22%
N=c1oc2ccccc2cc1-c1nc2ccccc2c(=O)[nH]1	13.6%
CCCCNC(=O)c1ccc(CS(=O)(=O)c2cccc(C(F)(F)F)c2)o1	-17%
COc1ccccc1Nc1nnc(SCC(=O)N2CCCC2)s1	-1.93%

Structure (SMILES)	hERG current change (%, negative = inhibition) at 1uM
CC(C)CN(C(=O)COC(=O)C12CC3CC(CC(O)(C3)C1)C2)C1CCS(=O)(=O)C1 (centres unmarked)	18.7%
CCCOc1cccc(C(=O)NC(=S)Nc2ccccc2)c1	7.56%
Cc1ccn2c(NC3CCCC3)c(-c3ccsc3)nc2c1	-3.92%
COc1cc(C)ccc1OCc1cc(C(=O)N(Cc2nccn2C)C(C)C)no1	-0.982%
Cc1onc(-c2ccccc2Cl)c1C(=O)Nc1nnc(-c2ccc(F)cc2)s1	-1.34%
O=C(Nc1cccc(Br)c1)c1ccc(OC2CSC2)cc1	4.63%
O=C(NCCc1c[nH]c2ccccc12)C1CCC(Cn2c(=S)[nH]c3ccccc3c2=O)CC1 (centres unmarked)	-1.65%
Cc1cc2c(c(SCC(=O)NCCc3ccccc3)n1)C(=O)OC2	-6.7%
CCCn1nc(C(=O)N2CCc3ccccc3C2)c2ccccc2c1=O	7.02%
CC(=O)Nc1ccc(Nc2cc(C)c3ccccc3n2)cc1	-0.226%
COc1cc(OC)cc(C(=O)NC2CCSC2=O)c1 (centres unmarked)	-9.92%
CCOC(=O)c1cccc(NC(=O)COc2nsnc2N2CCOCC2)c1	9.05%
c1ccc(SCc2cn3cccnc3n2)nc1	11.5%
CC(C)(C)OC(=O)N[C@@H](Cc1ccccc1)c1nnc(SCC(=O)O)o1	13.2%
CC(=O)NCC1CCCN(Cc2cn(-c3ccccc3)nc2-c2ccc3c(c2)OCO3)C1 (centres unmarked)	24.2%
CCC(C)(C)NC(=O)CN(C(=O)C(=O)Nc1ccc2c(c1)OCCO2)C(C)(C)CC	8.36%
COc1cc(C(=O)OCC(=O)NCc2ccc(F)cc2)cc(NC(=O)c2cccs2)c1OC	13%
C/C(=N\NC(=O)C(N)=O)c1ccc(O)cc1O	4.57%
O=C(N=Nc1c(O)[nH]c2ccc(F)cc12)C1COc2ccccc2O1 (centres unmarked)	7.6%
N#CCCn1cc(C(=O)Nc2ccc([N+](=O)[O-])cc2)c(-c2ccc3c(c2)OCCO3)n1	-23.1%
